{"source": "PubChem BioAssay AID1963576", "about": "(National Center for Advancing Translational Sciences (NCATS), 2024)", "note": "Out of some 46,000 compounds screened, about 60 (0.1%) were called active. Not shown: some 3% with an inconclusive outcome. The call rests on the fitted dose curve; in most records, active means well fitted inhibition curve with a large enough effect; inconclusive means small, poorly fitted or top-dose-only effect; inactive means no such curve, though single readings can be large or run the other way. The list shows a part of the results.", "data": [{"test": "Primary qHTS assay for Inhibitors of ovarian cancer metastasis using an organotypic tumor microenvironment (TME) model; further: nearly all actives have a fitted effect of over 65% in size;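 on activity change, negative = inhibition: plate controls were DMSO wells for no effect and tomatine positive control wells for full effect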.", "conditions": "SKOV3ip1-GFP adhesion/invasion on 3D omental model, fluorescence; series mostly up to 45.8 µM; activity change, negative = inhibition: at the top concentration", "in_short": "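Adhesion/invasion was scored as fixed GFP-labeled SKOV3ip1 cell counts (488/509 nm), normalized to DMSO and tomatine controls. Cancer cells in serum-free medium, with four compound doses (0.36-46 umol/L), sat 2 hr at RT then 16 hr at 37 C on a 48 hr fibroblast/mesothelial/ECM culture.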", "values": [{"compound": "N#Cc1ccc(OC(=O)c2cc(-c3ccc(Cl)cc3)on2)cc1", "outcome": "inactive"}, {"compound": "CCOc1ccc(-c2c(C)nn3c(C)c(C(=O)NCc4cccc(OC)c4)cnc23)cc1OCC", "activity change, negative = inhibition": "inactive: -4.57%"}, {"compound": "CCc1ccc(CN2C(=O)c3ccccc3C2C(=O)NC2CCCCCC2)cc1", "note": "(configuration not stated)", "activity change, negative = inhibition": "inactive: 1.44%"}, {"compound": "COc1ccc(C(=O)Nc2cnc3ccccn3c2=O)cc1", "activity change, negative = inhibition": "inactive: -22.5%"}, {"compound": "CCOC(=O)c1c(NC(=O)c2ccc(S(=O)(=O)N3CCC(C)CC3)cc2)sc2c1CCN(C(C)C)C2", "outcome": "inactive"}, {"compound": "COc1ccc(CCNC(=O)CCCn2c(=O)c3ccccc3n(CC(=O)Nc3cccc(C)c3)c2=O)cc1OC", "outcome": "inactive"}, {"compound": "CCOC(=O)c1ccc(NC(=O)CC2C(=O)N(c3ccccc3)C(=O)N2Cc2ccc(C)cc2)cc1", "note": "(configuration not stated)", "activity change, negative = inhibition": "inactive: -4.39%"}, {"compound": "Cc1nn(C(=O)COc2ccc(Cl)cc2)c(C)c1Sc1ccccc1", "outcome": "inactive"}, {"compound": "CCOc1cc(C(=O)N(Cc2nc(-c3ccc(C)cc3)no2)C(C)C)cc(OCC)c1OCC", "activity change, negative = inhibition": "inactive: -0.923%"}, {"compound": "COc1ccc(-n2ncc(C(=O)N3CCN(Cc4ccccc4)CC3)c2C2CCN(C(=O)OC(C)(C)C)CC2)cc1", "activity change, negative = inhibition": "inactive: 3.68%"}, {"compound": "CC(=O)Nc1ccc(S(=O)(=O)NCc2ccc3c(c2)CCN3C(C)=O)cc1", "activity change, negative = inhibition": "inactive: -8.45%"}, {"compound": "CCc1ccccc1Nc1nn2c(=O)c3ccc(C(=O)NC4CCC(C)CC4)cc3nc2s1", "note": "(configuration not stated)", "activity change, negative = inhibition": "inactive: -10.5%"}, {"compound": "Cc1oc(-c2ccccc2)nc1Cn1c(SCc2cccc(C(F)(F)F)c2)nc2cccnc21", "outcome": "inactive"}, {"compound": "O=C(Nc1ccc2oc(-c3ccccc3)nc2c1)c1ccc2ccccc2c1", "activity change, negative = inhibition": "inactive: -14.8%"}, {"compound": "COc1cc2ncnc(Nc3cccc(Cl)c3)c2cc1OC", "activity change, negative = inhibition": "inactive: 3.99%"}, {"compound": "CC(=O)N1c2ccc(S(=O)(=O)N3CCCCCC3)cc2CC1C(=O)NCc1ccccc1", "note": "(configuration not stated)", "outcome": "inactive"}, {"compound": "COc1cc2c(cc1OC)C(COc1ccc3c(C)cc(=O)oc3c1)N(C(=O)c1cccc(OC)c1OC)CC2", "note": "(configuration not stated)", "activity change, negative = inhibition": "inactive: 3.36%"}, {"compound": "COCCn1c(C)cc(O)c(C(c2ccccc2)N2CCN(CCO)CC2)c1=O", "note": "(configuration not stated)", "outcome": "inactive"}, {"compound": "Cc1ccc(Cl)cc1NC(=O)CCCn1c(=O)c2cccn2c2ccccc21", "outcome": "inactive"}, {"compound": "Clc1ccc(OCc2nc(-c3ccc(-n4cccc4)cc3)no2)cc1", "activity change, negative = inhibition": "inactive: 1.77%"}, {"compound": "Cc1ccc2c(n1)sc1c(=O)n(-c3cccc(C(F)(F)F)c3)nnc12", "outcome": "inactive"}, {"compound": "O=c1oc2cc(O)ccc2s1", "activity change, negative = inhibition": "inactive: -19.6%"}, {"compound": "O=C(Nc1ccccc1OCc1cc(=O)n2ccccc2n1)c1cccc(Br)c1", "activity change, negative = inhibition": "inactive: -6.64%"}, {"compound": "Cc1cc(C)cc(NC(=O)CSc2oc(-c3ccco3)nc2S(=O)(=O)c2ccccc2)c1", "activity change, negative = inhibition": "inactive: -14.7%"}, {"compound": "Cc1cccc(N2CCN(C(=O)c3ccc4c(c3)c(C)c(C)n4C)CC2)c1C", "activity change, negative = inhibition": "inactive: 28.1%"}, {"compound": "CCOc1ccc(NC(=O)N2CCC(CN3CCCCCC3)CC2)cc1", "activity change, negative = inhibition": "inactive: 2.2%"}, {"compound": "COc1ccc2c(c1)c1c(c(=O)n(Cc3ccccc3)c(=O)n1CC(=O)Nc1cc(C)cc(C)c1)n2C", "outcome": "inactive"}]}]}
